# Among all 45,000 compounds or so, about 65 (0.1%) were called active. Calls follow the shape of the dose curve; as a rule, active = well fitted activation curve with a large enough effect; inconclusive = small, poorly fitted or top-dose-only effect; inactive = no such curve, though single readings can be large or run the other way. The list shows a part of the results.
# Molecular target: Galactocerebrosidase (Homo sapiens) (UniProt P54803)
# Experiment: A Novel Cell-Based Assay to Identify Small Molecules for B -Galactocerebrosidase; also: 0% is about no effect; nearly all actives have a fitted effect of over 65% in size
# Settings: 145M-Twi-hGALC-G270D cells, HMU-beta-Gal fluorescence, 48 h; series mostly up to 57.5 µM; activation: at the top concentration
# Outline: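 qHTS, 1536-well; 145M-Twi-hGALC-G270D cells (WT line also made) in DMEM/F12 + 10% FBS; compound incubation on live cells; HMU-β-gal 0.1 mM final, pH 5.2, NaTC; carbonate stop; fluorescence increase = enhanced residual activity.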
# Chain of UniProt P54803 (P54803 whole entry, looked up): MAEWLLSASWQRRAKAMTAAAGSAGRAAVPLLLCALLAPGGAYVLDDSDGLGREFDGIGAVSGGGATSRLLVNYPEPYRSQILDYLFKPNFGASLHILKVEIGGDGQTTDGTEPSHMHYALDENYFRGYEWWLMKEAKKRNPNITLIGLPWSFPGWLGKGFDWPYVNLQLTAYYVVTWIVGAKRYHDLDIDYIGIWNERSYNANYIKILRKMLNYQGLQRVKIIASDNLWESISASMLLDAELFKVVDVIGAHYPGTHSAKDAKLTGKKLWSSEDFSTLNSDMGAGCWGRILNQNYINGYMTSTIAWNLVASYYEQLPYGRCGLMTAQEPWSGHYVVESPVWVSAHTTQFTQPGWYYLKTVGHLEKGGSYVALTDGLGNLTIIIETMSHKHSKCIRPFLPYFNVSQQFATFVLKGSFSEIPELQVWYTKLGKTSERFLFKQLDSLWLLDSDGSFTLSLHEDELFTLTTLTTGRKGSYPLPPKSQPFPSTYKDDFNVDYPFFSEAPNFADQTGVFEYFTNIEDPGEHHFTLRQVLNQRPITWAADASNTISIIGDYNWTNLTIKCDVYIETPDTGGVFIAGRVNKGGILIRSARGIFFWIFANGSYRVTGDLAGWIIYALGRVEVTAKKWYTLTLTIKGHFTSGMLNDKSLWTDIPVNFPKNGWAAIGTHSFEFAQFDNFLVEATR
row,SMILES,activation
1,C[C@@H](c1ncncc1F)C(O)(Cn1cncn1)c1ccc(F)cc1F (some centres undefined),inactive: -16.5%
2,O=C(Cn1cc(S(=O)(=O)Cc2cccc(Cl)c2)c2ccccc21)Nc1ccccc1Cl,inactive: -7.39%
3,COc1ccc(Cn2cc(C(=O)c3ccc(C)c(C)c3)c(=O)c3ccccc32)cc1,inactive: -13.1%
4,CCCCC12CN3CC(C)(CN(C1)C3c1ccc(O)c(OC)c1)C2=O (centres undefined),inactive: -21.4%
5,Cc1cccn2c(=O)c(C(=O)NCCc3ccccc3)cnc12,inactive: -6.39%
6,CCOc1ccc(CCNC(=O)c2cc(C)nc3c2c(C)nn3-c2cccc(F)c2)cc1,inactive: -10.4%
7,CC(C)(C(=O)c1cccnc1)c1cccnc1,inactive: -23.5%
8,Cc1ccc(F)cc1NC(=O)Cn1c(C)cc(C)c(C#N)c1=O,inactive: -20.1%
9,CC1CCN(c2nc3ccc(C(=O)NCc4ccccc4Cl)cc3s2)CC1,inactive: -15%
10,O=C(NC1CCCC1)c1ccc2c(c1)N(Cc1ccccc1)C(=O)c1ccccc1S2,inactive: -4.7%
11,Cc1ccc(S(=O)(=O)c2nnn3c2nc(NCCc2ccccc2)c2sccc23)cc1,inactive: -9.04%
12,O=C(NCc1cccc(Br)c1)c1ccc(NC(=O)N2CCCCc3ccccc32)cc1,inactive: 3.78%
13,COc1ccc(N2CCN(Cc3nc4c(c(=O)[nH]c(=O)n4C)n3CC(C)C)CC2)cc1,inactive: 11.5%
14,CCc1ccc(S(=O)(=O)c2cn(Cc3ccccc3F)c3cc(OC)c(OC)cc3c2=O)cc1,inactive: -8.96%
15,Cc1c(C)c2c(c(C)c1OC(=O)CCC(=O)OCCO)CC[C@@](C)(CCC[C@H](C)CCC[C@H](C)CCCC(C)C)O2,inactive: -0.0937%
16,Cn1c(=O)oc2cc(S(=O)(=O)N3CCCC(C(=O)NCCc4ccccc4)C3)ccc21 (centres undefined),inactive: -6.9%
17,CC(=O)c1ccc(NS(=O)(=O)c2ccc3[nH]c4c(c3c2)CCCC4)cc1,inactive: -16.9%
18,Cc1ccccc1C(=O)Nc1c(C)nc2ccccn2c1=O,inactive: -2.04%
19,Cc1ccc(CNC(=O)c2c[nH]n3c(=O)c(Cc4ccc(Cl)cc4)c(C)nc23)cc1,inactive: 7.17%
20,Cc1cccc(NC(=O)CS(=O)(=O)c2cccc3nsnc23)c1,inactive: -7.48%
21,Cc1cc(S(=O)(=O)NCC(c2ccco2)S(=O)(=O)c2cccs2)ccc1F (centres undefined),inactive: -10.4%
22,Cc1ccc(CCNC(=O)c2c3c(nc4ccccc24)C(=O)N(C2CCCCC2)C3)cc1,inactive: -6.13%
23,CCOc1ccc(C2c3[nH]c4ccccc4c3CCN2C(=O)CSCc2ccc(F)cc2)cc1 (centres undefined),inactive: -6.2%
24,O=C(NCCc1ccccc1)c1nn(-c2ccc(F)cc2)nc1CO,inactive: -1.82%

row,SMILES,activation
1,Cc1cccc(CNC(=O)c2ccc3nc(Cc4ccccc4)oc3c2)c1,inactive: -22.7%
2,COc1ccc(NC(=O)CSc2nnc(NC(=O)NC3CCCCC3)s2)cc1OC,inactive: -9.54%
3,Cc1coc2cc3oc(=O)c(CC(=O)NCc4cccc(Cl)c4)c(C)c3cc12,inactive: 2.41%
4,Cc1ccc(CNC(=O)c2c(-c3ccccc3Cl)noc2C)o1,inactive: -8.5%
5,CCOc1ccc(CCNC(=O)CCCc2nnc3n(CC)c(=O)c4sccc4n23)cc1OCC,inactive: 0.884%
6,Cc1cccc(NC(=O)COc2ccc(-c3nn(C)c(=O)c4ccccc34)cc2)c1,inactive: -1.93%
7,Cc1ccc(NC(=O)Cn2c(=O)n(Cc3nc(-c4ccccc4)no3)c(=O)c3ccccc32)cc1C,inactive: -9.57%
8,CCOc1ccc(NC(=O)CSc2nnc(-c3ccc(OCC)cc3)o2)cc1,inactive: -11.6%
9,COC(=O)c1ccccc1NC(=O)CSc1nc(=O)cc(N)n1-c1ccccc1,inactive: -10.5%
10,CN1CC(=O)NC1=N,inactive: -17.3%
11,COc1ccc(CNC(=O)Nc2ccc3c(c2)N(C)C(=O)c2ccccc2S3)cc1OC,inactive: -6.29%
12,COc1cc(OC)c(NC(=O)CN2CCCN(Cc3ccccc3C)S2(=O)=O)cc1Cl,inactive: 3.13%
13,Cc1cccc(NC(=O)CCn2cnnn2)c1C,inactive: -0.341%
14,CCC(=O)N1c2ccccc2CC1C(=O)NCc1ccccc1Cl (centres undefined),inactive: -20.9%
15,COc1cc(OC)c(NC(=O)CCc2c(C)nc3ncnn3c2C)cc1Cl,inactive: 24.5%
16,CCn1c(CN2CCC(C)CC2)nc2cc(NC(=O)COc3ccc(Cl)c(C)c3)ccc21,inactive: -5.42%
17,COc1cccc(N2CCN(C(=O)c3cc4cc5cc(C)ccc5nc4s3)CC2)c1,inactive: -16%
18,CN(Cc1ccccc1)c1ccc(-c2nc(-c3ccccn3)no2)cc1[N+](=O)[O-],inactive: -3.61%
19,CCc1ccc(-n2c(SCc3ccccc3Cl)nc3[nH]ncc3c2=O)cc1,inactive: -1.83%
20,COc1ccc(-c2nc(CSCC(=O)NCCc3ccccc3)c(C)o2)cc1,inactive: 1.73%
21,O=C(NC1(C(F)(F)F)C(=O)Nc2c1c(=O)[nH]c(=O)n2-c1ccc(Cl)cc1)c1ccccc1F (centres undefined),inactive: 0.774%
22,COc1ccc(Cn2cc(S(=O)(=O)c3ccc(Cl)cc3)c(=O)c3cc4c(cc32)OCO4)cc1,inactive: -13.3%
23,Cc1ccc(CNC(=O)c2ccc(Cn3c(=O)c4ccccc4n(CC(=O)Nc4ccc(C)cc4)c3=O)cc2)cc1,inactive: -8.68%
24,Cc1cccc(NC(=O)Cn2cc(C(=O)c3ccco3)c3ccccc32)c1,inactive: -18.5%

row,SMILES,activation
1,COC(=O)c1c(NC(=O)/C(C#N)=C/c2ccccc2)sc2c1CCC2,inactive: -13.2%
2,CCOc1ccc(-n2cc(-c3ccccc3)c3c(N4CCN(c5ccccc5OC)CC4)ncnc32)cc1,inactive: -10.7%
3,CCOc1ccc(NC(=O)c2sc3nc4c(c(-c5ccc(OC)cc5)c3c2N)C(=O)CC(C)(C)C4)cc1,inactive: 0.633%
4,CCCCN(CC)C(=O)CSc1c2c(nc3ccc(Cl)cc13)CCCC2,inactive: -11.7%
5,COc1ccc(-c2noc(-c3cccnc3N3CCN(c4ccc(OC)cc4)CC3)n2)cc1,inactive: -1.88%
6,O=C(Nc1cccc(Cl)c1)c1ccc2c(c1)CCN2S(=O)(=O)c1ccccc1,inactive: -7.61%
7,CCc1ccccc1Nc1nn2c(=O)c3ccc(C(=O)NCCCOC(C)C)cc3nc2s1,inactive: -23.9%
8,O=C(Nc1ccc2oc(-c3ccncc3)nc2c1)c1ccccc1Cl,inactive: -17%
9,Cc1oc(-c2ccc(Cl)cc2)nc1CSc1nc2ncccc2[nH]1,inactive: 1.76%
10,O=C(OCc1cc(=O)n2nc(C3CCCCC3)sc2n1)c1ccc(F)cc1,inactive: -4.21%
11,COc1cccc(NC(=O)c2ccc(-c3nc(COc4ccccc4)c(C)o3)cc2)c1,inactive: -1.05%
12,CCOCCCNC(=O)CN1C(=O)COc2ccc(S(=O)(=O)N3CCCC3)cc21,inactive: -0.936%
13,CCOC(=O)c1c(C)[nH]c(C)c1S(=O)(=O)N1CCCC(C(=O)NCc2ccc(Cl)cc2)C1 (centres undefined),inactive: -11.7%
14,COc1ccccc1Nc1cc(C(=O)NC2CCC(C)CC2)c2ccccc2n1 (centres undefined),inactive: -14%
15,CCn1nc(C)c(CCN(C)C(=O)Nc2cc(OC)c(OC)c(OC)c2)c1C,inactive: -14.2%
16,CCOC(=O)c1cnn(-c2ccc(C(=O)Nc3cccc(C(C)=O)c3)cc2)c1N,inactive: -4.83%
17,Cc1ccc(N2CC(NC(=O)c3ccc(S(=O)(=O)N4CCOCC4)cc3)CC2=O)cc1 (centres undefined),inactive: -4.28%
18,CCN(C(=O)Nc1cn(CC(C)C)c(=O)c2ccccc12)c1cc(C)ccc1C,inactive: -23.9%
19,Cc1c(Cl)cccc1NC(=O)C1CCN(c2ncnc3c2nc2n3CCCCC2)CC1,inactive: -15.1%
20,Cc1ccc2nc(Nc3ccc(C)c(F)c3)c3nncn3c2c1,inactive: -13.3%
21,Cc1ccc(CNC(=O)CCn2cnc3ccccc3c2=O)cc1,inactive: -5.64%
22,Fc1cccc(-c2nnn3c2nc(NCCc2ccccc2)c2ccccc23)c1,inactive: -1.23%
23,O=C(CCn1c(=O)c2cccn2c2cccnc21)N1CCN(c2ccccc2F)CC1,inactive: 2.21%
24,COc1ccc2cc(C(=O)NCc3ccc4c(c3)CCN4C(=O)c3ccc(F)cc3)[nH]c2c1,inactive: -5.47%

row,SMILES,activation
1,O=C(COCc1cc(-c2cccs2)on1)N1CCN(c2cccc(Cl)c2)CC1,inactive: -8.42%
2,CC(C)OCCCNC(=O)Cn1ccc2cc(S(=O)(=O)N3CCCCCC3)ccc21,inactive: -8.89%
3,COc1ccc(CC(=O)NCCc2csc(-c3cccc(C)c3)n2)cc1,inactive: -12.5%
4,COc1ccc(C)cc1NS(=O)(=O)c1c(C(=O)N2CCCCCC2)c(C)n(C)c1C,inactive: -14%
5,CC(C)CNC(=O)N1[C@H](c2cccs2)[C@@H](C)C(=O)[C@@H](C)[C@@H]1c1cccs1,inactive: -4.47%
6,Cc1cccc(OCC(=O)Nc2ccc(-c3nc4ccccc4o3)cc2)c1C,inactive: -21.3%
7,CCn1c(=N)n(CCOc2ccc(Br)cc2)c2ccccc21,inactive: -9.59%
8,Cc1ccc(-n2c(=O)[nH]c3cc(C(=O)NCc4ccccc4)ccc3c2=O)cc1,inactive: 0.619%
9,Cc1oc(-c2ccccc2Cl)nc1Cn1c(SCc2cccc(F)c2)nc2cccnc21,inactive: 0.869%
10,Cc1nc(-c2ccccc2)sc1-c1ccc(SCC(=O)NCc2ccc(Cl)cc2)nn1,inactive: -8.7%
11,CC(=O)c1cccc(NC(=O)CC(c2ccc(C)cc2)N2Cc3ccccc3C2=O)c1 (centres undefined),inactive: -23.5%
12,COc1cccc(-c2nnc(SCC(=O)N3CCC(C)CC3)o2)c1,inactive: -17.5%
13,O=C(OCc1cc(=O)n2nc(C3CCCCC3)sc2n1)c1ccccc1Cl,inactive: -11.6%
14,COCCCNC(=O)c1ccc(-n2c(-c3ccccc3)cc3c2CCCC3)cc1,inactive: -12.9%
15,Cc1ccc(NC(=O)CCCn2c(=O)c3cccn3c3ccccc32)cc1C,inactive: -10.9%
16,CC(C)CC(=O)n1nc(-c2cccnc2)nc1NCc1ccc(F)cc1,inactive: -14.7%
17,COc1ccc(OCC(=O)OCc2cc(=O)n3nc(-c4cccs4)sc3n2)cc1,inactive: -10.2%
18,OC[C@H]1O[C@@H]2O[C@H]3[C@H](O)[C@@H](O)[C@@H](O[C@H]4[C@H](O)[C@@H](O)[C@@H](O[C@H]5[C@H](O)[C@@H](O)[C@@H](O[C@H]6[C@H](O)[C@@H](O)[C@@H](O[C@H]7[C@H](O)[C@@H](O)[C@@H](O[C@H]8[C@H](O)[C@@H](O)[C@@H](O[C@H]1[C@H](O)[C@H]2O)O[C@@H]8CO)O[C@@H]7CO)O[C@@H]6CO)O[C@@H]5CO)O[C@@H]4CO)O[C@@H]3CO,inactive: -17.3%
19,Cc1cc(C)n(-c2nc3ccccc3nc2Nc2ccc(Cl)c(C(=O)OC(C)C)c2)n1,inactive: -12%
20,N#Cc1c(C(F)(F)F)cc(-c2cccs2)nc1SCC(=O)Nc1ccccc1F,inactive: 10.9%
21,CCc1ccc(O)c(C(=O)c2cnc3cc(-c4ccc(C)cc4)nn3c2)c1,inactive: 3.43%
22,Cc1cc(C)cc(NC(=O)CSc2oc(-c3ccccc3)nc2S(=O)(=O)c2ccccc2)c1,inactive: -26.5%
